# Test results as given in PubChem BioAssay AID485294 (National Center for Advancing Translational Sciences (NCATS), 2010).
# The campaign covered roughly 370,000 compounds. About 150 (0.041%) were called active. The inconclusive results got no clear call from the source; some entries with a clear call stand among them for comparison. The call rests on the fitted dose curve; in most records, active means well fitted inhibition curve with a large enough effect; inconclusive means small, poorly fitted or top-dose-only effect; inactive means flat fitted curve, though single readings scatter. Potencies of inconclusive entries are left out as doubtful fits.
# Target: Beta-lactamase (Escherichia coli (strain K12)) (UniProt P00811)
# UniProt P00811, sequence (P00811 whole entry, looked up): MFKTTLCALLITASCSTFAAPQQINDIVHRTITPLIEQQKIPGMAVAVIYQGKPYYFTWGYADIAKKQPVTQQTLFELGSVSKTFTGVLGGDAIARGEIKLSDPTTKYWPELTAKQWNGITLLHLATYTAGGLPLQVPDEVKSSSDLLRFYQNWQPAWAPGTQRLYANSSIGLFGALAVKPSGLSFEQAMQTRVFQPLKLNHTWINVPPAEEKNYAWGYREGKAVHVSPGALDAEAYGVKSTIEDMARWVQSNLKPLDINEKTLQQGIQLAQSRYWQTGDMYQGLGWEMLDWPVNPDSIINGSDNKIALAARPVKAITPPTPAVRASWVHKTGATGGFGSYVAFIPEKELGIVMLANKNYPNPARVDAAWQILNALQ
# Assay: qHTS Inhibitors of AmpC Beta-Lactamase (assay with detergent); further: nearly all actives have a fitted effect of over 25% in size;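 on activity change, negative = inhibition: 0% = no-compound wells and -100% = no-enzyme wells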
# Settings: AmpC hydrolysis of nitrocefin, absorbance 480 nm, 0.01% Triton; activity change, negative = inhibition: at 114 µM (top of the series)
# Procedure, shortened: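 AmpC (5.3 nM in the dispensed reagent) in 20 mM phosphate pH 7.0 with 0.01% (detergent screen) or 0.0001% Triton X-100 was preincubated with compounds for 15 min at room temperature. Nitrocefin was then added from an 800 uM solution, and hydrolysis was followed at 480 nm.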
# Potency means the concentration at half of the fitted maximal effect; tags describe the fitted curve by direction and shape.
Structure (SMILES),"activity change, negative = inhibition",Potency
COc1ccc(Nc2c(-c3cc(Br)ccc3O)nc3ncccn23)cc1OC,inactive: 3.71%,–
CC1CN(S(=O)(=O)c2cccc(C(=O)NCc3ccco3)c2)CC(C)O1 (centres undefined),–,"inconclusive [inhibitor, single point]"
CC1CC(C)CN(c2ccc(S(=O)(=O)N3CCOCC3)cc2)C1 (centres undefined),–,"inconclusive [inhibitor, single point]"
O=C(NC1CCC(O)CC1)c1ccc2c(c1)S(=O)(=O)N=C1CCCCCN12 (centres undefined),–,"inconclusive [inhibitor, partial curve, poor fit]"
Oc1ccc(COC2CCN(Cc3ccccc3)C2)c2cccnc12 (centres undefined),–,"inconclusive [inhibitor, full curve, poor fit]"
CCOc1cccc2sc(N(CCCN(C)C)C(=O)c3ccc(S(=O)(=O)N(C)CC4CCCO4)cc3)nc12 (centres undefined),–,"inconclusive [inhibitor, partial curve]"
Cc1ccc(S(=O)(=O)c2cn(C)c3cc(N4CCN(C)CC4)c(F)cc3c2=O)cc1,–,"inconclusive [inhibitor, single point]"
Cc1noc2ncnc(Oc3ccc(Cl)cc3Cl)c12,–,"inconclusive [inhibitor, full curve, poor fit]"
CC1CC(C)CN(CCCSc2ccccc2)C1 (centres undefined),–,"inconclusive [inhibitor, partial curve]"
Cc1cc(C)nc(N2CCN(c3ccc(F)cc3)CC2)n1,–,"inconclusive [inhibitor, full curve, poor fit]"
Cc1ccc(OCC(=O)NCCNC(=O)c2ccccn2)cc1,–,"inconclusive [inhibitor, full curve, poor fit]"
Cc1ccc(-c2nc3ccccc3n2C)o1,–,"inconclusive [inhibitor, single point]"
CCCCn1c(C)cc2c(c1=O)C1O[C@](c3ccsc3)(Cc3ccccc31)O2,–,"inconclusive [inhibitor, partial curve]"
CC1(O)CC(c2ccc(Cl)cc2)=NN1C(=O)c1ccc(Cl)cc1 (centres undefined),–,"inconclusive [inhibitor, partial curve, poor fit]"
C/C(=N\O)c1ccccc1C(=O)O,–,"inconclusive [inhibitor, single point]"
Cn1c(=O)c2cnc(N3CCOCC3)nc2n(C)c1=O,–,"inconclusive [inhibitor, full curve, poor fit]"
CC1=C(C#N)C(NC(=O)c2cccc(Cl)c2)(C(F)(F)F)C(=O)N1 (centres undefined),–,inactive
CCN(Cc1cc2ccc(C)cc2[nH]c1=O)C(=O)c1cccnc1,–,"inconclusive [inhibitor, full curve, poor fit]"
COc1ccccc1-c1noc(-c2ccc(N3CCN(c4ccccc4)CC3)c([N+](=O)[O-])c2)n1,inactive: 14.9%,–
O=C(COc1nc2ccccc2nc1N1CCOCC1)N1CCc2ccccc21,–,"inconclusive [inhibitor, full curve, poor fit]"
O=C(CNS(=O)(=O)c1cccs1)N1CCCCC1,inactive: -4.37%,–
CC(C)(C)c1ccc(CSc2ccc(S(=O)(=O)N3CCOCC3)cn2)cc1,–,"inconclusive [inhibitor, full curve, poor fit]"

Structure (SMILES),"activity change, negative = inhibition",Potency
CC(Sc1nnc(-c2cccs2)n1N)C(=O)NCC1CCCO1 (centres undefined),inactive: -1.34%,–
Cc1cc(C)cc(NC(=O)c2nnn(Cc3cc(C)ccc3C)c2N)c1,–,"inconclusive [inhibitor, full curve, poor fit]"
O=C(Nc1ccccn1)c1ccc2ccccc2n1,inactive: -9.5%,–
O=C(c1cc(S(=O)(=O)N2CCOCC2)c(Cl)cc1Cl)N1CCCC1,–,"inconclusive [inhibitor, full curve, poor fit]"
Cc1csc(NC(=O)c2cc3ccccc3o2)n1,–,"inconclusive [inhibitor, partial curve, poor fit]"
CCCCCCCNC(=O)C1(CC2CC(c3cccc(Br)c3)=NO2)CCN(C(=O)OC(C)(C)C)CC1 (centres undefined),inactive: -15.6%,–
CC(C)OCCCNC(=O)c1cc(S(=O)(=O)N2CCc3ccccc32)cn1C,–,"inconclusive [inhibitor, partial curve, poor fit]"
CC(=O)Nc1cccc(NC(=O)c2cc(-c3cccnc3)nc3ccc(Br)cc23)c1,–,"inconclusive [inhibitor, partial curve, poor fit]"
O=C(Nc1ccccc1C(=O)Nc1nnc(C(F)(F)F)s1)c1ccccc1,–,"inconclusive [inhibitor, single point]"
Oc1cccc(CN2CCCCC2)c1,–,"inconclusive [inhibitor, full curve, poor fit]"
CCN1CCN(C(c2cccnc2)c2c(NC(=O)c3ccco3)sc(C)c2C)CC1 (centres undefined),–,"inconclusive [inhibitor, full curve, poor fit]"
O=C(CSc1nnc(Cc2cccs2)n1-c1ccc(Cl)cc1)NCc1ccc2c(c1)OCO2,–,"inconclusive [inhibitor, full curve, poor fit]"
CCN(C(=O)CSc1nnc(-c2ccc(C)cc2)n1N)c1c(N)n(Cc2ccccc2)c(=O)[nH]c1=O,–,"inconclusive [inhibitor, partial curve, poor fit]"
CN1CCC(N(C)S(=O)(=O)c2ccc(NC(=O)COc3cccc(Cl)c3)cc2)CC1,–,"inconclusive [inhibitor, full curve, poor fit]"
Cc1cc(=O)n2[nH]c(N)c(N=Nc3ccccc3)c2n1,–,"inconclusive [inhibitor, partial curve, poor fit]"
COc1ccc(C(CCNCc2ccc(OC(C)C)cc2)C(C)C)cc1 (centres undefined),inactive: 8.27%,–
COc1ccc(/C=C(/NC(=O)c2ccccc2)C(=O)N/N=C/c2ccncc2)c(OC)c1,–,"inconclusive [inhibitor, partial curve, poor fit]"
Cc1ccc2c(c1)C(SCC(=O)NCCc1ccccc1)CC1(CCCC1)O2 (centres undefined),–,"inconclusive [inhibitor, partial curve, poor fit]"
COC(=O)C1=C(C)N(Cc2ccccc2)C(=NCc2cc(OC)c(OC)c(OC)c2)N[C@H]1c1ccc(Br)cc1,–,"inconclusive [inhibitor, partial curve, poor fit]"
COc1ccc(Nc2nc3ccccc3nc2C)cc1,–,"inconclusive [inhibitor, full curve]"
COc1cc(OC)cc(C(=O)NNC(=O)CCc2nc3ccccc3c(=O)[nH]2)c1,inactive: 6.64%,–
COC(=O)c1cc(C(=O)OC)n(Cc2ccc(Cl)cc2Cl)n1,–,"inconclusive [inhibitor, partial curve]"

Structure (SMILES),"activity change, negative = inhibition",Potency
Cc1nn(CCCC(=O)Nc2ccccc2C(F)(F)F)c(=O)c2c1sc1ccccc12,inactive: 11.7%,–
CCOC(=O)C1=C(CSc2nc(C)ccc2C#N)OC(N)=C(C#N)C1c1cccc(OC)c1OC (centres undefined),–,"inconclusive [inhibitor, partial curve]"
O=C(Cn1nc(Cc2cccnc2)c2ccccc2c1=O)NCCCN1CCCC1=O,–,"inconclusive [inhibitor, full curve, poor fit]"
O=C(Nc1ccc2ccccc2c1)c1onc2c1CCCC2,inactive: -6.38%,–
CC(C)(C)NC[C@H](O)COc1nsnc1N1CCOCC1,–,"inconclusive [inhibitor, full curve]"
CC(=O)NCCc1nc2cc(NC(=O)c3ccccc3C)ccc2n1C,–,"inconclusive [inhibitor, partial curve]"
COC(=O)Cc1ccc(N(Cc2ccccc2F)S(=O)(=O)c2ccc(Br)cc2)cc1,–,"inconclusive [inhibitor, full curve, poor fit]"
Cc1[nH]c2ccc(-c3n[nH]c(=S)n3C)cc2c1C,–,"inconclusive [inhibitor, full curve, poor fit]"
CCOC(=O)c1nnn(-c2nonc2N)c1-c1ccc(Br)cc1,inactive: 3.08%,–
CC(=O)Nc1ccc(C(=O)CSc2nc3ccc(C)cc3[nH]2)cc1,–,"inconclusive [inhibitor, partial curve, poor fit]"
Cc1onc(-c2ccccc2)c1C(=O)N/N=C/c1cc2c(cc1Br)OCO2,–,"inconclusive [inhibitor, partial curve, poor fit]"
Cc1nc(NC(=O)c2ccc(Br)o2)sc1C,inactive: 1.48%,–
O=C(c1ccco1)N(c1ccccn1)c1ccccn1,inactive: -7.17%,–
CCNCC1(c2ccc(OC)c(OC)c2)CCCC1,–,"inconclusive [inhibitor, partial curve, poor fit]"
Cc1cccc(N2CCN(S(=O)(=O)c3ccc4c(c3)CCCN4C(=O)C3CCC3)CC2)c1C,–,inactive
C[C@]12CCC(=O)C=C1CC[C@@H]1[C@@H]2[C@@H](O)C[C@@]2(C)[C@H]1CC[C@]2(O)C(=O)COC(=O)CCC(=O)O,–,"inconclusive [inhibitor, full curve, poor fit]"
O=C(COC(=O)c1cccc([N+](=O)[O-])c1)Nc1ccc(Cl)cn1,–,"inconclusive [inhibitor, full curve, poor fit]"
CCOC(=O)c1cnc2sc3c(n2c1=O)CCCC3,–,"inconclusive [inhibitor, full curve, poor fit]"
O=C(COC(=O)c1cc(Br)ccc1O)Nc1ccc2c(c1)OCO2,–,"inconclusive [inhibitor, partial curve, poor fit]"
C=CCNC(=O)c1cn(CC)c2cc(N3CCN(C(=O)c4ccco4)CC3)c(F)cc2c1=O,inactive: 4.86%,–
